The list shows a part of the results.
What follows are sequences tested against T1, OsWOX13 (Oryza sativa, UniProt Q5QMM3 1-267) (assay: protein-binding microarray (RPBM); PBS, 2% BSA, 51.3 ng/ul salmon testes DNA, 50 uM zinc acetate, 200 nM TF, 25 C, 1 h; high values mean tight binding). Details: protein: recombinant; tags: N-terminal polyhistidine and DsRed monomer fusion (pET32a); label: CyDye5-dUTP incorporated in the synthesized complementary strand; 3' TTTTT single-stranded linker to array surface; dsDNA, one strand shown.
T1 sequence: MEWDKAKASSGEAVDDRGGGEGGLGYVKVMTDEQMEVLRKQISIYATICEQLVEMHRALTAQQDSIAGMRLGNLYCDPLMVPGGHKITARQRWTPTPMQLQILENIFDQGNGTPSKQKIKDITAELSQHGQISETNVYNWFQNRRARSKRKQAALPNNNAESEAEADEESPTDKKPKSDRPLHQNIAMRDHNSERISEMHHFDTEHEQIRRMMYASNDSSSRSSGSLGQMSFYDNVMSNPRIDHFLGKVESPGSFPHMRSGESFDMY
How it was run: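 A custom Agilent array was converted to double-stranded form by primer extension with Cy5-dUTP and blocked with 2% BSA. Protein at 200 nM in PBS with 2% BSA, salmon testes DNA and 50 µM zinc acetate was applied for 1 h at 25 °C, followed by washing. The proteins were polyhistidine–DsRed N-terminal fusions of transcription factors, expressed in E. coli BL21-CodonPlus and Ni–NTA-purified. The binding signal is per-feature fluorescence intensity (arbitrary units) from an Axon 4000B scanner.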
In the case of “TTAACTTGTGATTAATTAAGTATTAGCCTAAAAGAGCTTTCGGAGTCACCTAGTGCAG”, the binding signal is reported as 20700 fluorescence intensity (a.u.). With “ATGTGCAAATGATTGGGTTCGTTTCGTTCTGGCAATCTAGCGGAGTCACCTAGTGCAG” the binding signal was 24300 fluorescence intensity (a.u.). For “AGGCTAACAGCCAATCAAGTTTTGGATTAAACGGTTAAACCGGAGTCACCTAGTGCAG”, the binding signal was 19500 fluorescence intensity (a.u.). In the case of “TTACAGTGTAATTACATGCAAGTTACAGTGTAATTACACTCGGAGTCACCTAGTGCAG”, the binding signal is reported as 6140 fluorescence intensity (a.u.). With “AATTAAGAAATTAGATAGGATTATACAAGGGATGGTTGTGCGGAGTCACCTAGTGCAG” the binding signal was 3740 fluorescence intensity (a.u.). With “GGAAGCTAGTGATTGCCGGTGGCCTAAGGAGTTTGTTGTCCGGAGTCACCTAGTGCAG” the binding signal was 3680 fluorescence intensity (a.u.). “TTTAAATTTTAATGATCGGTGATTTTGTGCAGGGAAAACGCGGAGTCACCTAGTGCAG” was tested, and the binding signal was 24200 fluorescence intensity (a.u.). “TTCCATCAATCAAAACTTTCCTACACACAAACTTCCAACTCGGAGTCACCTAGTGCAG” was tested, and the binding signal was 14100 fluorescence intensity (a.u.). “CGTTAACTTTCGACTAATAATCATACTAACTATATATACTCGGAGTCACCTAGTGCAG” was tested, and the binding signal was 6830 fluorescence intensity (a.u.). With “ACATGATGACCTTAAATTCGACTAATATGAAAAGAAACACCGGAGTCACCTAGTGCAG” the binding signal was 5080 fluorescence intensity (a.u.). For “CCTGATTTTAATAATGATACATCCAAACTAAAATCACCAACGGAGTCACCTAGTGCAG”, the binding signal was 32000 fluorescence intensity (a.u.). For “GCATGTTATTAATTAAGTATTAATAATTTAGAACTTAAAACGGAGTCACCTAGTGCAG”, the binding signal was 6360 fluorescence intensity (a.u.). For “TACATCCCTACTAATTGTGTCATGTATCAATAATGATATGCGGAGTCACCTAGTGCAG”, the binding signal was 3560 fluorescence intensity (a.u.). With “CTAATATGGATAGATTGAAACATCAAGGACTAAACTGAGCCGGAGTCACCTAGTGCAG” the binding signal was 27800 fluorescence intensity (a.u.). “ATTCGTGCTGTTTAAAATTTTAATTAGGAGGTGAATTAAACGGAGTCACCTAGTGCAG” was tested, and the binding signal was 6560 fluorescence intensity (a.u.). For “GTCCAAGTCATCAATAATTAGACTTTTCAACACATGACTGCGGAGTCACCTAGTGCAG”, the binding signal was 10800 fluorescence intensity (a.u.). In the case of “GCACGTGTGATTACACTTTCAATAGAAAAGTACTTCATCCCGGAGTCACCTAGTGCAG”, the binding signal is reported as 5480 fluorescence intensity (a.u.). “CGCAAAATAACTGGCAGACTGAATTTAGTCTTATCACCTTCGGAGTCACCTAGTGCAG” was tested, and the binding signal was 12700 fluorescence intensity (a.u.). For “ATAGAAAATATTTAATGCTAATTAGTAGGCTGCGATTGTACGGAGTCACCTAGTGCAG”, the binding signal was 6740 fluorescence intensity (a.u.). In the case of “AAAGATTATCCGTAATCTTGCTGATGCTCTCACACCCCTTCGGAGTCACCTAGTGCAG”, the binding signal is reported as 3630 fluorescence intensity (a.u.). With “CTTCTGATCAGATTCAGATTGCCAACACTGCAACCTTCTGCGGAGTCACCTAGTGCAG” the binding signal was 7710 fluorescence intensity (a.u.). With “ATTGAAAATCATTAATTAATTAATTAAGAACACCATGAACCGGAGTCACCTAGTGCAG” the binding signal was 40400 fluorescence intensity (a.u.). With “GAACTAAAATGAGGATAAAATGATTTTAGACTTGGGCGGCCGGAGTCACCTAGTGCAG” the binding signal was 4260 fluorescence intensity (a.u.). With “GAAACAGATTTTCTCAGCTAATCGCAACAATCATGTCTGACGGAGTCACCTAGTGCAG” the binding signal was 4600 fluorescence intensity (a.u.). In the case of “AGGGATTTTAATTGGGTAGTACTAATGCGCGGGTGTCACCCGGAGTCACCTAGTGCAG”, the binding signal is reported as 11000 fluorescence intensity (a.u.). “CTTTTGACATTAATTAATCAATTGGTAGGTTTTGTGCGTTCGGAGTCACCTAGTGCAG” was tested, and the binding signal was 36100 fluorescence intensity (a.u.). In the case of “TAAATTTTATAATCATGAATATATGAAATATAATTTCAGTCGGAGTCACCTAGTGCAG”, the binding signal is reported as 11400 fluorescence intensity (a.u.). With “TGAAATCATAAATTGGCAATCAAATACAGAAGCATAAGAACGGAGTCACCTAGTGCAG” the binding signal was 31000 fluorescence intensity (a.u.). “TCATGATTGAAGGCAGTTACTCACAGTGAGTTCCAATCCACGGAGTCACCTAGTGCAG” was tested, and the binding signal was 29400 fluorescence intensity (a.u.). “CTCAGATTAGCGAAGAAGGTTCGTTAGGCTAATCTCAGCACGGAGTCACCTAGTGCAG” was tested, and the binding signal was 4010 fluorescence intensity (a.u.). For “ATGTCAGTTCATAATTATAAAATTTACTTAGTTGAAGTTCCGGAGTCACCTAGTGCAG”, the binding signal was 4720 fluorescence intensity (a.u.). “TAAAACTAAGAAATTAAGATAATTTTACACAAGTATACTGCGGAGTCACCTAGTGCAG” was tested, and the binding signal was 3200 fluorescence intensity (a.u.). “TATAATTGCGCAAATTCCTCATACTCTTAAAATTGTTAACCGGAGTCACCTAGTGCAG” was tested, and the binding signal was 18500 fluorescence intensity (a.u.). For “ACAAGTAATTAATCATGCATCTCATGAGCTCACAAATATTCGGAGTCACCTAGTGCAG”, the binding signal was 9930 fluorescence intensity (a.u.). In the case of “AGGCTAATCCAATCACCGAGCGCCACTTGTCTTCGTCTTCCGGAGTCACCTAGTGCAG”, the binding signal is reported as 12700 fluorescence intensity (a.u.). For “TGAGCAAATTGATTAGTGGTAATTACTTCCAATAGAAATACGGAGTCACCTAGTGCAG”, the binding signal was 28700 fluorescence intensity (a.u.). For “CTCTTGTGACAAATTAACTGATATTGGCTCCATATTCTCCCGGAGTCACCTAGTGCAG”, the binding signal was 14300 fluorescence intensity (a.u.). With “ATAAAGATTTAATTGTTACGAACATAACGGTACAATCAGACGGAGTCACCTAGTGCAG” the binding signal was 12400 fluorescence intensity (a.u.). With “GGTCAATTTACCAATATTTCGGCAAATATTATTCCATCCACGGAGTCACCTAGTGCAG” the binding signal was 5470 fluorescence intensity (a.u.). “ACAAATTATAGATTGCGCCTGTAACTGCGAGACGAACTTACGGAGTCACCTAGTGCAG” was tested, and the binding signal was 23700 fluorescence intensity (a.u.). For “CGTGAAATAACAAATTTATTCCTGTATATTCACCCTGTTTCGGAGTCACCTAGTGCAG”, the binding signal was 3970 fluorescence intensity (a.u.). With “GGATTAATTGTTAGTACACGCTTGTGTGGCTTTGACGCATCGGAGTCACCTAGTGCAG” the binding signal was 16400 fluorescence intensity (a.u.). “GAATAATTGCTAAATCTAAAAGTGACAAATGGTTAAATTCCGGAGTCACCTAGTGCAG” was tested, and the binding signal was 23200 fluorescence intensity (a.u.). For “CAAAATATCTCCTCCAATCAATCCGAAACCCAGAGGCCCACGGAGTCACCTAGTGCAG”, the binding signal was 5650 fluorescence intensity (a.u.). “AAGAAATTACTCCTCATCAGAAGATACATCATCTTCAGAACGGAGTCACCTAGTGCAG” was tested, and the binding signal was 3890 fluorescence intensity (a.u.). With “TACATACAATCAACTACCCGCTGATCTGATGAAGTCGCCACGGAGTCACCTAGTGCAG” the binding signal was 3420 fluorescence intensity (a.u.). In the case of “AATGTAATCCTGTTTTGATTGTATACGAATTCTCCACGTACGGAGTCACCTAGTGCAG”, the binding signal is reported as 6340 fluorescence intensity (a.u.). In the case of “GGGTGATTTGTTGCAACGGCGCGTGTGGTGGTGCGTGTGGCGGAGTCACCTAGTGCAG”, the binding signal is reported as 11800 fluorescence intensity (a.u.). With “ATAGTGTTGATTTTCTAATTAGTTTGATATGGGTGCCAATCGGAGTCACCTAGTGCAG” the binding signal was 24500 fluorescence intensity (a.u.). For “TTTCAATTATAACCAAACTTTCCTCGACACAATTCCAAAGCGGAGTCACCTAGTGCAG”, the binding signal was 5800 fluorescence intensity (a.u.). With “CTTTATAATTAGTTAATCCAAATCATGATCTCATACCGGCCGGAGTCACCTAGTGCAG” the binding signal was 18100 fluorescence intensity (a.u.). “TTACTTTATTGATAAGCATTGATGGGGTCTTGAGACTTGACGGAGTCACCTAGTGCAG” was tested, and the binding signal was 9630 fluorescence intensity (a.u.). For “GTTGATTTGGTTCCACGCATCGCACGCAGCGTCCCGAGAGCGGAGTCACCTAGTGCAG”, the binding signal was 14800 fluorescence intensity (a.u.). In the case of “GAGATTATTACTGCAAATTGGATATGGAGAAGTTGTTCTTCGGAGTCACCTAGTGCAG”, the binding signal is reported as 14000 fluorescence intensity (a.u.).

Source: publication PMC7819943, “Rice protein-binding microarrays: a tool to detect cis-acting elements near promoter regions in rice”
